The whole screen tested about 320,000 compounds, of which about 200 (0.062%) were called active. The inconclusive results got no clear call from the source; some entries with a clear call stand among them for comparison. The call rests on the fitted dose curve; in most records, active means well fitted activation curve with a large enough effect; inconclusive means small, poorly fitted or top-dose-only effect; inactive means no such curve, though single readings can be large or run the other way. Potencies of inconclusive entries are left out as doubtful fits.
Assay: qHTS assay for re-activators of p53 using a Luc reporter; further: nearly all actives have a fitted effect of over 45% in size; on activity change, positive = activation: % of control where 0% means no effect
Settings: H1299 p53-A138V BP100-luciferase reporter, luminescence, 24 h; series mostly up to 92.2 µM; activity change, positive = activation: at the top concentration
In short: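 p53-null H1299 cells stably carrying temperature-sensitive p53-A138V and a BP100-luciferase reporter were pinned with compounds (4-point, 1:5 series) and held 24 hrs at 37 deg C. Luminescence was read 10 min after detection reagent.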
Potency means the concentration at half of the fitted maximal effect; tags describe the fitted curve by direction and shape.

Row | Structure (SMILES) | Potency | activity change, positive = activation
1 | O=C1NC(c2ccccn2)Nc2sc3c(c21)CCC3 (stereo unspecified) | inconclusive [activator, partial curve, poor fit] | 
2 | CCOc1ccc(NC(=S)N(CCCN2CCCC2)Cc2cccn2Cc2ccc(Cl)cc2)cc1 |  | inactive: 29.2%
3 | Cc1ccc(-c2cc3ccccc3nc2N)cc1 | inconclusive [activator, partial curve, poor fit] | 
4 | O=C(COc1cccc(Br)c1)NN=C1c2ccccc2-c2ccccc21 |  | inactive: -4.52%
5 | CC(=O)/C=C/c1ccccc1Oc1c(F)c(F)nc(F)c1F | inconclusive [activator, single point] | 
6 | CCCC(C(=O)NC(C)(C)C)N(CC1CCCO1)C(=O)CNS(=O)(=O)c1ccc(F)cc1 (stereo unspecified) |  | inactive: -0.012%
7 | CCN(CC)c1ccc(/C=C/c2nc3ccccc3s2)cc1 |  | inactive: -0.306%
8 | O=C(CCc1nnc(C2(c3ccc(Cl)cc3)CCC2)o1)N1CCCC1 | inconclusive [activator, full curve, poor fit] | 
9 | O=C(Nc1ccc(Br)cc1Cl)c1cnccn1 | inconclusive [activator, single point] | 
10 | CCOc1ccc(/C=N/NC(=O)c2[nH]c3ccc(C)cc3c2C)cc1 |  | inactive: 2.95%
11 | O=C(Nc1ccc(OC(F)F)cc1)c1ncc(Cl)c(Cl)c1Cl |  | inactive: 2.22%
12 | COc1ccc(CNC(=O)c2[nH]c(C)c(C(C)=O)c2C)cc1 |  | inactive: 5.98%
13 | O=C(N/N=C/c1cccc(O)c1)c1cc(-c2ccc3c(c2)OCO3)n[nH]1 | inconclusive [activator, full curve, poor fit] | 
14 | COc1ccc(NC(=O)C2CCCN(S(=O)(=O)c3ccc4c(c3)CCCN4C(C)=O)C2)cc1Cl (stereo unspecified) |  | inactive: -5.53%
15 | COc1ccc(NC(=O)c2coc(C)c2)cc1 | inconclusive [activator, partial curve, poor fit] | 
16 | Cn1c(SCC(=O)NNC(=O)c2ccccc2)nnc1C(F)(F)F | inconclusive [activator, partial curve, poor fit] | 
17 | Cc1ccccc1OCCC(=O)Nc1ccc2c(C)cc(=O)oc2c1 |  | inactive: 7.95%
18 | Cc1ccc(OCc2cc(C(=O)Nc3ccccc3)oc2C)cc1 | inconclusive [activator, partial curve, poor fit] | 
19 | Clc1ccc(-c2csc(NNC3=NCCCCC3)n2)cc1 |  | inactive: 8.59%
20 | CCCC1C(C#N)=C(N)Oc2cc(C)n(C)c(=O)c21 (stereo unspecified) |  | inactive: -0.656%
21 | CCc1ccc(NC(=O)CCc2c(C)nn(-c3ccc(N4CCCCC4)nn3)c2C)cc1 | inconclusive [activator, partial curve, poor fit] | 
22 | CCCCn1c(NC(=S)Nc2ccccc2)nc2ccccc21 | inconclusive [activator, partial curve, poor fit] | 
23 | CC1(CCC#N)N=C(SCCC#N)N(c2ccccc2)C1=O (stereo unspecified) |  | inactive: -4.1%
24 | O=C(O)c1ccccc1C(=O)Nc1c(-c2ccccc2)nc2ccccn12 | inconclusive [activator, partial curve, poor fit] | 

Row | Structure (SMILES) | Potency | activity change, positive = activation
25 | O=C(O)c1cccc(NC(=O)c2cccc(S(=O)(=O)N3CCCCC3)c2)c1 | inconclusive [activator, partial curve, poor fit] | 
26 | Cc1ccc(C(=O)CC(Nc2ccc(F)cc2)c2ccccc2)cc1 (stereo unspecified) | active: 17.8 µM | 
27 | COc1cccc(/C=C/C(=O)Nc2ccc3c(c2)OCCO3)c1OC |  | inactive: -7.46%
28 | Cc1ccccc1N=CC1=C(O)c2ccccc2C1=O |  | inactive: 4.77%
29 | Nc1c2c(nc3sc4c(c13)CCCC4)-c1ccccc1CC2 | inconclusive [activator, partial curve, poor fit] | 
30 | O=c1c(-c2ccc(Cl)cc2)c[nH]n1-c1ccccc1 | inconclusive [activator, full curve, poor fit] | 
31 | Nc1ccc2nc(N3CCOCC3)sc2c1 |  | inactive: 0.109%
32 | Cc1ccc(C(=O)Nc2nc(C)c(C(=O)Nc3ccc4c(c3)CCC4)s2)cc1 | inconclusive [activator, partial curve, poor fit] | 
33 | COc1ccc(C(=O)COC(=O)c2cncc(Br)c2)cc1 | inconclusive [activator, full curve, poor fit] | 
34 | Oc1cccc2ccc(/C=C/c3ccccc3Cl)nc12 | inconclusive [activator, partial curve, poor fit] | 
35 | CCCSc1nsc(NC(=O)Nc2ccc(F)cc2F)n1 |  | inactive: -4.82%
36 | Cc1cc(C2C(C#N)=C(N)Oc3n[nH]c(C)c32)c(C)s1 (stereo unspecified) |  | inactive: -0.101%
37 | COc1cccc2cc(C(=O)NCc3ccccn3)c(=O)oc12 | inconclusive [activator, partial curve, poor fit] | 
38 | CC1(C)Cc2c(sc(NC(=O)C(=O)N3CCCC3)c2C#N)CO1 | inconclusive [activator, partial curve, poor fit] | 
39 | CN(C(=O)CSc1nc2c(c(=O)[nH]1)CCCC2)C1CCCCC1 | inconclusive [activator, partial curve, poor fit] | 
40 | CCCCn1nnnc1SCC(=O)c1ccc(C)c(C)c1 | inconclusive [activator, single point] | 
41 | COc1ccc(NC(C)C(=O)N/N=C/c2ccccc2OCc2cccc(Br)c2)cc1 (stereo unspecified) | inconclusive [activator, partial curve, poor fit] | 
42 | COCCOC(=O)N/C=C\c1nc2ccccc2c(=O)[nH]1 | inconclusive [activator, single point] | 
43 | Cc1ccc(NC(=S)NC(=O)c2cccs2)cc1F | inconclusive [activator, partial curve, poor fit] | 
44 | Cc1ccc(C(=O)NCCSC(C)(C)C)cc1[N+](=O)[O-] | inconclusive [activator, partial curve, poor fit] | 
45 | C=CCN(CC=C)S(=O)(=O)c1ccc(NC(=S)NC(=O)/C=C/c2cccc3ccccc23)cc1 |  | inactive: 1.11%
46 | O=C(Nc1ccc2c(c1)OCO2)c1ccccn1 | inconclusive [activator, partial curve, poor fit] | 
47 | OCCOCCNc1ncnc2nc[nH]c12 |  | inactive: 11.9%
48 | CC1CCN(C(=O)c2cc3ccccc3o2)CC1 | inconclusive [activator, partial curve, poor fit] | 

Row | Structure (SMILES) | Potency | activity change, positive = activation
49 | O=C(Cn1cnc2ccccc21)Nc1ccc2c(c1)OCCCO2 | inconclusive [activator, full curve, poor fit] | 
50 | COc1cc(SC)ccc1C(=O)Nc1ccc(C)cc1 |  | inactive: 11%
51 | O=C(COC(=O)c1cc(S(=O)(=O)N2CCCCC2)ccc1Cl)NCc1ccco1 | inconclusive [activator, single point] | 
52 | CCCC(=O)N1CCc2cc(-c3nc(N)sc3C)ccc21 | inconclusive [activator, full curve] | 
53 | CCC(C)c1ccc2oc(-c3ccc(NC(=O)c4ncn[nH]4)cc3)nc2c1 (stereo unspecified) | inconclusive [activator, partial curve, poor fit] | 
54 | c1ccc(-c2csc(Nc3ccccn3)n2)cc1 | inconclusive [activator, full curve, poor fit] | 
55 | COC(=O)c1ccc(NCC(=O)c2ccccc2)cc1 | inconclusive [activator, partial curve, poor fit] | 
56 | Cc1oc(-c2ccccc2)nc1Cn1cccc1C1=NC(c2ccccc2)CO1 (stereo unspecified) |  | inactive: 7.51%
57 | CCOCCc1nnc(NC(=O)c2ccc(OC)c(OC)c2)s1 | inconclusive [activator, single point] | 
58 | Cc1ccc(CSc2nnnn2C)cc1 | inconclusive [activator, single point] | 
59 | CC(=O)N1CCc2c(sc(NC(=O)C3CCCN3S(=O)(=O)c3cccs3)c2C(N)=O)C1 (stereo unspecified) |  | inactive: -4.35%
60 | CC(CN1CCOCC1)C(=O)O (stereo unspecified) | inconclusive [activator, partial curve, poor fit] | 
61 | CCc1ccc(C(=O)Nc2cc(C)on2)o1 | inconclusive [activator, full curve, poor fit] | 
62 | CN(C)c1ccc(CC(=O)c2nc3ccccc3s2)cc1 | inconclusive [activator, partial curve, poor fit] | 
63 | COC(=O)c1ccc(COC(=O)CCC(=O)c2cccs2)cc1 | inconclusive [activator, partial curve, poor fit] | 
64 | Cn1cnc([N+](=O)[O-])c1SCC(O)CN1CCCCC1 (stereo unspecified) | inconclusive [activator, single point] | 
65 | CCOc1ccc(/C=C/C(=O)c2ccccc2)cc1 | inconclusive [activator, partial curve, poor fit] | 
66 | CCOC(=O)c1ccc2c(c1)C(=O)N(C1CCCCC1)C2=O |  | inactive: -1.28%
67 | Cc1cc(C(=O)COC(=O)c2ccc(O)cc2O)c(C)n1-c1ccccc1 | inconclusive [activator, partial curve, poor fit] | 
68 | COC(=O)[C@@H]1C[C@]2(OC(=O)c3ccccc3)C=CC(=O)C[C@@H]2N1C(=O)OCc1ccccc1 |  | inactive: -18.9%
69 | CCCc1ccc(-c2cc(NC(=O)CSc3n[nH]c(N)n3)n(-c3ccccc3)n2)cc1 |  | inactive: 3.19%
70 | Cc1ccc(S(=O)(=O)CCC(=O)OCC(=O)N2c3ccccc3NC(=O)C2(C)C)cc1 | inconclusive [activator, single point] | 
71 | O=C(/C=C/c1ccc([N+](=O)[O-])cc1)N1CCN(c2ccccc2F)CC1 | inconclusive [activator, partial curve, poor fit] | 
